# Data from PubChem BioAssay (Tox21).
# “And” between values parts separate entries of the source, which are not always exact repeats. Equal values may be shown once. Inconclusive results, whose numbers are uncertain, are shown with a selection of clear calls. For some assays here: Potencies of inconclusive entries are doubtful fits and often do not repeat. The source made the active and inactive calls. Unless noted, calls come from the whole dose curve; as a rule, active = well fitted curve in the direction sought with a large enough effect in the repeat runs; inconclusive = weak or mixed curves; inactive = no such curve, though single readings can be large; an effect the other way counts as inactive or inconclusive.
# How the values were obtained:
# [1] = qHTS assay to identify small molecule agonists of H2AX (AID 1224845; active = well fitted activation curve with a large enough effect in the signal ratio in the repeat runs, not every such curve was filed as active; inconclusive = weak or mixed curves; the % refers to the signal ratio; for activation (H2AX phosphorylation): % is set by controls: 0 for no effect and ±100 for the full control effect); conditions: CHO-K1 phospho-H2AX Ser139 HTRF, 3 h; activation (H2AX phosphorylation): at 154 µM (top of the series) unless noted
# In short: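 Phospho-H2AX Ser139 measured by HTRF (ex 320 nm; em 665 and 620 nm) after 24 hr antibody incubation. Compounds, 15 concentrations, 0.76% DMSO, were applied to CHO-K1 cells for 3hr at 37C before lysis.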
# [2] = qHTS assay to identify small molecule agonists of the hypoxia (HIF-1) signaling pathway (AID 1224846; active = well fitted activation curve with a large enough effect in the signal ratio in the repeat runs, not every such curve was filed as active; inconclusive = weak or mixed curves; the % refers to the signal ratio); conditions: HRE-bla ME-180 cells, beta-lactamase ratio, 17 h; activation: at 76.8 µM (top of the series) unless noted
# In short: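 Compounds added to ME-180 cells carrying hypoxia-response-element beta-lactamase reporter (0.5% dialyzed FBS, 5 h preplating), 17 h at 37C; agonist activity detected by CCF4-AM B/G FRET read-out.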
# [3] = qHTS assay to identify small molecule agonists of H2AX - cell viability counter screen (AID 1224847; calls by dose curve; note: nearly all actives have a fitted effect of over 30% in size)
# In short: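 Quantitative HTS viability measurement: CHO-K1 wild-type cells in serum (10% FBS) medium, short 3 hr drug exposure at 37C with 0.76% DMSO, CellTiter-Glo luminescent detection.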
# [4] = qHTS assay to identify small molecule antagonists of the estrogen related receptor (ERR) signaling pathway from Tox21 library (AID 1224848); note: nearly all actives have a fitted effect of over 50% in size
# In short: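 ERR cell line, 2,000 cells/well. 6 h settle, then compound (DMSO) added; 18 h at 37 C; ONE-Glo luminescence after 30 min RT.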
# [5] = A CellTox Green Cytotoxicity Assay to monitor cytotoxicity in HEK293 cells - 24 hour (AID 1224875); note: nearly all actives have a fitted effect of over 45% in size
# In short: (§1)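 Fluorescence from a DNA-binding dye excluded by viable cells was measured repeatedly in the same HEK293 wells (600 cells/well) during continuous compound exposure at 37 C. Each assay gives one read point: 0, 8, 16, 24, 32 or 40 h.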
# [6] = A CellTox Green Cytotoxicity Assay to monitor cytotoxicity in HepG2 cells - 24 hour (AID 1224878); note: nearly all actives have a fitted effect of over 45% in size
# In short: (§2)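 Real-time cytotoxicity: fluorescence of a cell-impermeant cyanine dye binding DNA of dead HepG2 cells, measured repeatedly (0–40 h) during compound exposure at 37 C. Cells seeded 600/well with reagent, dosed after 5 h.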
# [7] = qHTS RealTime-Glo MT Cell Viability Assay in HepG2 cells - 24 hour (AID 1224867); note: nearly all actives have a fitted effect of over 50% in size
# In short: (§3)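 Viability was tracked continuously by NanoLuc luminescence from prosubstrate reduced by living HepG2 cells, at successive time points over 40 h of compound exposure. Cells with reagent were preincubated 5 h at 37 °C before compound addition.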
# [8] = qHTS RealTime-Glo MT Cell Viability Assay in HEK293 cells - 16 hour (AID 1224872); note: nearly all actives have a fitted effect of over 50% in size
# In short: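 Viability tracked continuously by luminescence as live cells reduce a prosubstrate for NanoLuc; HEK293 cells preincubated 5 h, compound-treated at 37 C, and read at 0, 8, 16, 24, 32 and 40 h.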
# [9] = qHTS RealTime-Glo MT Cell Viability Assay in HepG2 cells - 8 hour (AID 1224873); note: nearly all actives have a fitted effect of over 55% in size
# In short: (§4)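 Real-time viability: cells seeded at 600 per well together with NanoLuc and cell-permeant prosubstrate, compounds added after 5 h incubation. Luminescence tracked at 0, 8, 16, 24, 32 and 40 h of exposure.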
# [10] = qHTS RealTime-Glo MT Cell Viability Assay in HEK293 cells - 40 hour (AID 1224874); conditions: RealTime-Glo luminescence; max response: stronger effect = lower value; note: nearly all actives have a fitted effect of over 50% in size
# In short: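 Luminescence, which tracks viable cell number through reduction of the prosubstrate to a NanoLuc substrate, was read over continuous 37 C culture. Cells (600/well) were premixed with reagent and rested 5 h before 23 nL of compound in DMSO was pinned.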
# [11] = A CellTox Green Cytotoxicity Assay to monitor cytotoxicity in HepG2 cells - 16 hour (AID 1224876); note: nearly all actives have a fitted effect of over 45% in size
# In short: as §2
# [12] = A CellTox Green Cytotoxicity Assay to monitor cytotoxicity in HEK293 cells - 40 hour (AID 1224871); note: nearly all actives have a fitted effect of over 45% in size
# In short: as §1
# [13] = A CellTox Green Cytotoxicity Assay to monitor cytotoxicity in HepG2 cells - 40 hour (AID 1224879); note: nearly all actives have a fitted effect of over 40% in size
# In short: as §2
# [14] = A CellTox Green Cytotoxicity Assay to monitor cytotoxicity in HEK293 cells - 32 hour (AID 1224881); note: nearly all actives have a fitted effect of over 40% in size
# In short: as §1
# [15] = qHTS RealTime-Glo MT Cell Viability Assay in HepG2 cells - 40 hour (AID 1224870); note: nearly all actives have a fitted effect of over 50% in size
# In short: as §4
# [16] = qHTS RealTime-Glo MT Cell Viability Assay in HepG2 cells - 32 hour (AID 1224877); note: nearly all actives have a fitted effect of over 55% in size
# In short: as §3
# Potency is the fitted concentration of half-maximal effect; tags give direction and shape of the fitted curve or compound fluorescence and quenching.
compound,measurement,setting,value
COC(=O)[C@]1(C)CCC[C@@]2(C)[C@H]1CC=C1C=C(C(C)C)CC[C@@H]12,Potency,[1],"inconclusive: 127 µM [activator, single point]"
same,Potency,[2],inconclusive: 54.9 µM
same,Potency,[3],inconclusive: 113 µM [cytotoxic]
same,Potency,[4],"inconclusive: 61.1 µM [inhibitor, partial curve]"
same,Potency,[5],active: 38.9 µM
same,Potency,[6],active: 24.5 µM
CC[C@H]1O[C@]2(CC[C@@H]1C)C[C@@H]1C[C@@H](C/C=C(\C)C[C@@H](C)/C=C/C=C3\CO[C@@H]4[C@H](O)C(C)=C[C@@H](C(=O)O1)[C@]34O)O2,Potency,[1],active: 44.6 µM
same,Potency,[2],inconclusive: 24.3 µM [full curve]
same,Potency,[3],active: 50 µM
same,Potency,[7],active: 43.3 µM
same,Potency,[8],active: 38.5 µM
same,Potency,[9],active: 48.5 µM
same,Potency,[10],active: 24.3 µM
same,Potency,[5],active: 48.5 µM
same,Potency,[11],active: 48.5 µM
same,Potency,[6],"inconclusive: 43.3 µM [activator, partial curve, poor fit]"
Cc1cc(C(C)(C)C)c(O)c(C(C)(C)C)c1,Potency,[1],"inconclusive: 80.2 µM [activator, partial curve]"
same,activation (H2AX phosphorylation),[1],inconclusive: 10.9%
same,Potency,[3],"inconclusive: 127 µM [cytotoxic, single point] and inconclusive: 40.1 µM [cytotoxic, partial curve] and inconclusive: 61.9 µM [cytotoxic, partial curve, poor fit]"
same,Potency,[12],"inconclusive: 21.9 µM [activator, partial curve, poor fit] and inconclusive: 23.9 µM [activator, single point]"
same,Potency,[8],"inconclusive: 31 µM [cytotoxic, partial curve]"
same,Potency,[5],"active: 49.1 µM and inconclusive: 17.4 µM [activator, full curve, poor fit] and inconclusive: 21.3 µM [activator, single point]"
same,Potency,[6],"inconclusive: 55.1 µM [activator, partial curve, poor fit]"
same,Potency,[13],"inconclusive: 55.1 µM [activator, partial curve, poor fit]"
same,Potency,[14],"active: 49.1 µM and inconclusive: 19.5 µM [activator, full curve, poor fit] and inconclusive: 23.9 µM [activator, single point]"
CCCCCCOc1cc(C)c(O)c(C)c1C,Potency,[1],"inconclusive: 128 µM [activator, single point]"
same,Potency,[2],inconclusive: 55.6 µM
same,Potency,[3],active: 102 µM
same,Potency,[7],"inconclusive: 39.4 µM [falling, partial curve]"
same,Potency,[15],"inconclusive: 35.1 µM [falling, partial curve]"
same,Potency,[9],"inconclusive: 22.1 µM [falling, partial curve]"
same,Potency,[16],"inconclusive: 44.2 µM [cytotoxic, partial curve]"
